For assay [1], the target named is T1, recombinant human Ang-2 (human, UniProt O15123 19-496, limits assumed).
T1 construct: also called Angiopoietin-2; hAng-2
T1 sequence (looked up): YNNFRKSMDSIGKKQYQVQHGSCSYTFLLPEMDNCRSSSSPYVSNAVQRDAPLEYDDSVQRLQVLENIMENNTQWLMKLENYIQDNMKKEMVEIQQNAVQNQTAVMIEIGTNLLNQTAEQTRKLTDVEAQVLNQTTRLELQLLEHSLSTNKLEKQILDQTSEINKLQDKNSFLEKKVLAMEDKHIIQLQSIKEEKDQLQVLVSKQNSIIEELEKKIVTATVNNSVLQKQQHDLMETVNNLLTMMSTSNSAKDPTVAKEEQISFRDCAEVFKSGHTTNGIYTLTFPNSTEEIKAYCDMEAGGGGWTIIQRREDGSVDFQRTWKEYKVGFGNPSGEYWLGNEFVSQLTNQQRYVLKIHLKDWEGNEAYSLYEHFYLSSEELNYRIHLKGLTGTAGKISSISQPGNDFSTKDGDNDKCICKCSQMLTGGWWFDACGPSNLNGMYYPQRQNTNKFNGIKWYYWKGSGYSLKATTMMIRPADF
Description: ELISA on plate-coated recombinant human Ang-2; anti-human IgG1-Fc-HRP, OD450. The procedure: (§1) After non-specific blocking using 1% BSA at 25° C. for 1 hour, a series of dilutions of test antibodies (“Abs”) were added into the coated wells and incubated at 25° C. for 1 hour. The bound Abs were detected using a secondary Ab (goat anti-human IgG1-Fc) conjugated with HRP followed by OD₄₅₀ reading.

In assay [2] the target is T2, recombinant human VEGF-B167 (human, UniProt P49765-2 22-188).
T2 sequence (looked up): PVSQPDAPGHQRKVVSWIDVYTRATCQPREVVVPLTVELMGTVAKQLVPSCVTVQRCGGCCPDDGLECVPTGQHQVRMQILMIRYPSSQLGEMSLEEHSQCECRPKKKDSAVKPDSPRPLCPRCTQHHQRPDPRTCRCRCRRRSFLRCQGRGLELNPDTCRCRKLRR
The assay can be described thus: ELISA on plate-coated recombinant human VEGF-B167; anti-human IgG1-Fc-HRP, OD450. The procedure:
as §1

Assay [3] addresses T1, recombinant human Ang-2. The assay can be described thus: ELISA, cross species binding.
For assay [4], the target named is rabbit VEGF-A165 (rabbit). Description: ELISA, cross species binding.

B1: EB-105BI-7CA (other)
heavy: QVQLQESGPGLVRPSQTLSLTCTVSGYSITSDHAWSWVRQPPGRGLEWIGYISYSGITTYNPSLKSRVTMLRDTSKNQFSLRLSSVTAADTAVYYCARSLARTTAMDYWGQGSLVTVSSASTKGPSVFPLAPSSKSTSGGTAALGCLVKDYFPEPVTVSWNSGALTSGVHTFPAVLQSSGLYSLSSVVTVPSSSLGTQTYICNVNHKPSNTKVDKKV[human IgG1 Fc skipped]GGSGGGGSGGGGSAQTNFMPMDDLEQRLYEQFILQQGLE
light: SDTGRPFVEMYSEIPEIIHMTEGRELVIPCRVTSPNITVTLKKFPLDTLIPDGKRIIWDSRKGFIISNATYKEIGLLTCEATVNGHLYKTNYLTHRQTNTIIDVVLSPSHGIELSVGEKLVLNCTARTELNVGIDFNWEYPSSKHQHKKLVNRDLKTQSGSEMKKFLSTLTIDGVTRSDQGLYTCAASSGLMTKKNSTFVRVHEKDIQMTQSPSSLSASVGDRVTITCRASQDISSYLNWYQQKPGKAPKLLIYYTSRLHSGVPSRFSGSGSGTDFTFTISSLQPEDIATYYCQQGNTLPYTFGQGTKVEIKRTVAAPSVFIFPPSDEQLKSGTASVVCLLNNFYPREAKVQWKVDNALQSGNSQESVTEQDSKDSTYSLSSTLTLSKADYEKHKVYACEVTHQGLSSPVTKSFNRGEC
notes: VEGFR-1-D2-VEGFR-2-D3 at the N-terminus of the tocilizumab light chain; Made in CHO cells; also called B21138001
Regarding B1, the concentration giving a half-maximal response (EC50) was found to be 0.436 nM in assay [1] and 0.043 nM in assay [2].

B2: EB-105BI-7CB (other)
heavy: QVQLQESGPGLVRPSQTLSLTCTVSGYSITSDHAWSWVRQPPGRGLEWIGYISYSGITTYNPSLKSRVTMLRDTSKNQFSLRLSSVTAADTAVYYCARSLARTTAMDYWGQGSLVTVSSASTKGPSVFPLAPSSKSTSGGTAALGCLVKDYFPEPVTVSWNSGALTSGVHTFPAVLQSSGLYSLSSVVTVPSSSLGTQTYICNVNHKPSNTKVDKKV[human IgG1 Fc skipped]GGSGGGGSAQTNFMPMDDLEQRLYEQFILQQGLE
light: B1 light
notes: Trispecific antibody fusion protein, first embodiment; lead molecule; also called B21138002
For B2, the entries for the “binding affinity measured by ELISA” value in assay [3] and in assay [4] were 0.0643 nM and 0.0775 nM, respectively.

Source of the values: US20260265359A1 (Hoffmann-La Roche, published 2026).
